Source: PubChem BioAssay AID720542 (National Center for Advancing Translational Sciences (NCATS), 2013)
The whole screen tested about 360,000 compounds, of which about 740 (0.21%) were called active. The shares of active, inactive and inconclusive entries below differ from those in the screen. Calls come from the whole dose curve; as a rule, active = well fitted inhibition curve with a large enough effect; inconclusive = small, poorly fitted or top-dose-only effect; inactive = no such curve, though single readings can be large or run the other way. No potency is given beside an inconclusive call; the fits are too rough.
Note: nearly all actives have a fitted effect of over 45% in size.
Potency is the fitted concentration of half-maximal effect; tags give direction and shape of the fitted curve.
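Throughout, for activity change, negative = inhibition: 0% = vehicle wells and -100% = peptide control.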

These compounds were tested on Plasmodium falciparum AMA1 (3D7) - RON2 peptide interaction (assay: qHTS for Inhibitors of AMA1-RON; Towards Development of Antimalarial Drug Lead: Primary Screen). Conditions: AlphaScreen AMA1-biotinylated RON2 peptide binding; activity change, negative = inhibition: at 58.2 µM (top of the series) unless noted.
In short: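 AMA1 (3D7) with his tag at 25 nM final met compounds first, then biotinylated RON2 peptide at 25 nM; detection used donor plus acceptor beads, 10 µg/mL apiece, read by AlphaScreen after 30 min at room temperature.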
`Cc1ccc(NCCC(=O)c2cccc([N+](=O)[O-])c2)c(C)c1` was tested, and the Potency was inconclusive [inhibitor, single point].
For `O=C(CN1C(=O)c2ccc([N+](=O)[O-])cc2C1=O)Nc1ccccc1N1CCCC1`, the “activity change, negative = inhibition” value was inactive: 68.3%.
For `Nc1ccc2c(c1)N1CCN=C1S2`, the Potency was inconclusive [inhibitor, partial curve].
`Cc1cccc(C(=O)n2c(=S)nc3cc(C)ccn32)c1` was tested, and the Potency was inconclusive [inhibitor, single point].
`COc1ccc(NC(=O)C2CCC(N3C(=O)C4C5C=CC(C5)C4C3=O)CC2)cc1` (centres undefined) was tested, and the Potency was inconclusive [inhibitor, single point].
For `Cc1cccc(Oc2ccc(NC(=O)C3CC=CCC3C(=O)O)cc2)c1` (centres undefined), the Potency was inconclusive [inhibitor, partial curve, poor fit].
In the case of `COc1cc(/C=C2\CCCc3c2nc2ccccc2c3C(=O)O)cc([N+](=O)[O-])c1O`, the Potency is reported as inconclusive [inhibitor, partial curve].
In the case of `COCC(=O)n1nc(-c2ccccc2)nc1NCc1ccc(N(C)C)cc1`, the Potency is reported as active: 22.4 µM.
For `C[C@H](NC(=O)c1ccco1)C(=O)NNC(=O)COc1cccc(C(F)(F)F)c1`, the “activity change, negative = inhibition” value was inactive: 94.5%.
In the case of `COc1ccc(-c2oc3ccc(-c4cc(OC)c(OC)c(OC)c4)cc3c2C#Cc2ccsc2)cc1`, the “activity change, negative = inhibition” value is reported as inactive: -4.97%.
In the case of `COC(=O)c1c(C(=O)OC)c2cccc3cc(-c4ccccc4)c4ccc1c4n32`, the Potency is reported as inconclusive [inhibitor, partial curve].
In the case of `Cc1nn(Cc2ccccc2)c2sc(C(=O)N3CCN(Cc4ccc5c(c4)OCO5)CC3)cc12`, the Potency is reported as inconclusive [inhibitor, partial curve].
With `c1ccc(Nc2ccc(Nc3ccccc3)cc2)cc1` the Potency was active: 15.8 µM.
`Cc1cccc(N2CCN(Cc3nc(-c4cccc(Oc5ccccc5)c4)oc3C)CC2)n1` was tested, and the Potency was inconclusive [inhibitor, single point].
With `CN(C)c1ccc(Nc2ccc([N+](=O)[O-])cn2)cc1` the “activity change, negative = inhibition” value was inactive: -6.24%.
In the case of `CCc1c(-c2ccc(OC)cc2)ncn1Cc1cccc(-c2ccccc2)c1`, the Potency is reported as inconclusive [inhibitor, single point].
In the case of `COc1ccc(CNC(=O)CCNS(=O)(=O)c2ccc(C)cc2)cc1`, the Potency is reported as inconclusive [inhibitor, partial curve].
In the case of `CC(=O)NC(c1ccc(Cl)cc1)c1c(O)ccc2ccc(O)cc12` (centres undefined), the “activity change, negative = inhibition” value is reported as inactive: -13.8%.
For `Cc1ccc(C(=O)c2c(NC(=O)c3ccccc3)sc(C)c2C)cc1`, the Potency was inconclusive [inhibitor, partial curve].
`OC(CON=C1c2ccccc2-c2ccccc21)CN1CCNCC1` (centres undefined) was tested, and the “activity change, negative = inhibition” value was inactive: -9.63%.
With `CN(C)N(C(=O)c1cc(-c2cccs2)nn1-c1ccccc1)C1CCS(=O)(=O)C1` (centres undefined) the “activity change, negative = inhibition” value was inactive: -25.8%.
For `Cn1c(-c2ccc(Br)cc2)cnc1NCc1cccnc1`, the Potency was inconclusive [inhibitor, single point].
For `Cc1ccccc1-c1nc(CN2CCSCC2)c(C)o1`, the Potency was inconclusive [inhibitor, single point].
With `Nc1nc(SCc2ccccc2Cl)ns1` the Potency was inconclusive [inhibitor, single point].
`Cc1cc(N=Nc2ccccc2)c(NCC(O)C(O)C(O)CO)cc1C` (centres undefined) was tested, and the Potency was inconclusive [inhibitor, partial curve].
`Nc1nc(-c2ccc([N+](=O)[O-])cc2)cc(=O)[nH]1` was tested, and the Potency was inconclusive [inhibitor, partial curve, poor fit].
In the case of `COc1cc(/C=N/N(C)C)ccc1OC(=O)c1cccs1`, the Potency is reported as inconclusive [inhibitor, single point].
`CCOC(=O)c1c(-c2ccc(-c3ccccc3)cc2)csc1NC(=O)CNCCN(C)C` was tested, and the “activity change, negative = inhibition” value was inactive: -0.525%.
`COc1ccc(CNC(=O)CN2C(=O)NC(C)(c3cccc4ccccc34)C2=O)cc1OC` (centres undefined) was tested, and the Potency was inconclusive [inhibitor, partial curve, poor fit].
`COc1ccccc1N1CCN(/N=C/C=C\c2ccco2)CC1` was tested, and the Potency was inconclusive [inhibitor, single point].
In the case of `COC(=O)C1=C(C(=O)OC)[C@@H]2N(C)c3ccc(OC)cc3[C@@]23C[C@@H](C(=O)OC)N(C(=O)c2ccc(Br)cc2)C3=N1`, the Potency is reported as inconclusive [inhibitor, single point].
For `N#Cc1c(Nc2ccccc2C(F)(F)F)s[nH]c1=O`, the Potency was inconclusive [inhibitor, full curve, poor fit].
In the case of `CN(C)CC(C)(C)CNC(=S)NCc1ccc2c(c1)OCO2`, the Potency is reported as inconclusive [inhibitor, partial curve].
For `O=C(O/N=C\c1ccc(N2CCCCC2)c([N+](=O)[O-])c1)c1ccc(Cl)cc1Cl`, the Potency was inconclusive [inhibitor, partial curve].
With `COc1ccc(CN(Cc2cccn2C)C(=O)c2cc3cc(OC)ccc3[nH]2)cc1` the Potency was inconclusive [inhibitor, partial curve, poor fit].
`CCn1c(SCC(N)=O)nnc1-c1ccco1` was tested, and the “activity change, negative = inhibition” value was inactive: 2.28%.
With `Cc1cccc(NNC(=S)Nc2c(C)cccc2C)c1` the Potency was inconclusive [inhibitor, single point].
With `N=c1c(S(=O)(=O)c2ccccc2)cc2c(=O)n3ccccc3nc2n1C1CCCC1` the “activity change, negative = inhibition” value was inactive: 7.55%.
`CN(C)c1cc(NC(=O)CNC(C)(C)C)c2ccccc2n1` was tested, and the Potency was inconclusive [inhibitor, partial curve].
In the case of `C/C(=N\N1CCN(c2ccccc2)CC1)c1ccco1`, the Potency is reported as inconclusive [inhibitor, partial curve].
In the case of `Cc1cs/c(=N\N=C\c2ccccc2)n1Cc1ccco1`, the Potency is reported as inconclusive [inhibitor, single point].
With `Oc1ccc(-c2sc(Nc3ccccc3)n[n+]2-c2ccc(F)cc2)cc1` the Potency was inconclusive [inhibitor, single point].
In the case of `COc1cc(Cc2ccc(N)c(OC)c2)ccc1N`, the Potency is reported as inconclusive [inhibitor, partial curve].
With `COCCNCCCCOc1ccc(Br)cc1C` the Potency was inconclusive [inhibitor, full curve, poor fit].
In the case of `COc1ccc(-c2ccc(CCC(=O)O)n2-c2ccccc2O)cc1`, the “activity change, negative = inhibition” value is reported as inactive: 10.2%.
In the case of `CC(=O)c1c(C)[nH]c(C(=O)OC(C)C(=O)Nc2ccc(C)c(S(=O)(=O)N3CCOCC3)c2)c1C` (centres undefined), the “activity change, negative = inhibition” value is reported as inactive: -0.0695%.
In the case of `Nc1ccc(N2CCCCC2)cc1N1CCCCC1`, the Potency is reported as inconclusive [inhibitor, single point].
With `CN(C)c1ccc(NC(=O)Nc2ccc3c(c2)c(=O)n(C)n3-c2ccccc2)cc1` the Potency was active: 20 µM.
With `O=C(Cn1c(-c2ccccc2)noc1=O)Nc1ccc(N2CCCCCC2)cc1` the Potency was inconclusive [inhibitor, partial curve].
For `CC[C@H](C)/C=C(C)/C=C/C1=CC2=C(Cl)C(=O)[C@](C)(OC(C)=O)C(=O)C2=CO1`, the Potency was inconclusive [inhibitor, single point].
For `CCN1CCN(C(c2cccs2)C(C)NC(=O)c2ccccc2F)CC1` (centres undefined), the “activity change, negative = inhibition” value was inactive: 3.13%.
`CC1=C(C(=O)N2CCOCC2)CC(CC(=O)NC2CCCCC2)C(=O)N1Cc1ccc(C(C)(C)C)cc1` (centres undefined) was tested, and the “activity change, negative = inhibition” value was inactive: 5.94%.
With `Cc1ccc(NC(=O)CO/N=C/c2ccc(N(C)C)cc2)cc1` the Potency was inconclusive [inhibitor, partial curve].
`Cc1cccc(N=Nc2c(C)[nH]n(-c3ccccc3)c2=O)c1` was tested, and the Potency was inconclusive [inhibitor, full curve].
In the case of `COc1cc(Nc2cc(C)nc3ncnn23)cc(OC)c1`, the “activity change, negative = inhibition” value is reported as inactive: -0.351%.
For `O=C(O)c1ccccc1CC(CCc1ccccc1)C(=O)O` (centres undefined), the Potency was inconclusive [inhibitor, single point].
In the case of `CC1CN(S(=O)(=O)c2cccc(C(=O)NCCc3ccc(S(N)(=O)=O)cc3)c2)CC(C)O1` (centres undefined), the Potency is reported as inconclusive [inhibitor, full curve, poor fit].
With `O=C(Nc1ccnn1C1CCN(Cc2ccccc2)CC1)C1CCCC1` the “activity change, negative = inhibition” value was inactive: -1.35%.
In the case of `O=C(/C=C/c1ccc(-c2ccccc2[N+](=O)[O-])o1)c1ccco1`, the Potency is reported as inconclusive [inhibitor, single point].
For `O=C(c1ccc(OCCN2CCCCC2)cc1)c1c(-c2ccc(O)cc2)sc2cc(O)ccc12`, the Potency was inconclusive [inhibitor, single point].
In the case of `COc1ccccc1CCn1cnc(-c2ccc(OC)c(OC)c2)c1C(C)C`, the Potency is reported as inconclusive [inhibitor, single point].
In the case of `COCCN1C=C(C(=O)OC)C(c2ccc(Cl)cc2)C(C(=O)OC)=C1`, the “activity change, negative = inhibition” value is reported as inactive: 45.6%.
For `CCn1nc(C)c(/C=N/NC(=O)c2nc3nc(C)cc(C)n3n2)c1C`, the “activity change, negative = inhibition” value was inactive: 26.4%.
For `O=C(Nc1ccc(-n2cnnn2)cc1)C(c1ccccc1)c1ccccc1`, the “activity change, negative = inhibition” value was inactive: 0.956%.
In the case of `Cc1ccc(C(=O)NCCCNC(=O)Cc2ccc(Cl)cc2)cn1`, the Potency is reported as inconclusive [inhibitor, partial curve].
In the case of `CCN(CC)CCOC(=O)c1ccc(NC(=O)c2cn(-c3ccccc3)nc2-c2cccs2)cc1`, the Potency is reported as inconclusive [inhibitor, partial curve].
In the case of `Cc1cc(OCCCn2ccnc2)ccc1[N+](=O)[O-]`, the Potency is reported as inconclusive [inhibitor, single point].
With `N#Cc1ccc2[nH]c(CO)c(-c3ccccc3)c2c1` the “activity change, negative = inhibition” value was inactive: -3.03%.
With `N#CCCN1CCN(C(=S)c2ccc(-c3cc(Cl)ccc3Cl)o2)CC1` the Potency was inconclusive [inhibitor, single point].
